# Among all 310,000 compounds or so, about 14,000 (4.5%) showed an effect of 50% or more. The effect is printed as a negative number. The list shows a part of the results.
# Target: human ether-à-go-go-related gene (hERG) potassium channel (human, UniProt Q12809)
# Assay: primary screen, population patch clamp on CHO cells stably expressing hERG
# 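Note: peak tail current of the secondary pulse compared with the same well before compound.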
# Chain of human ether-à-go-go-related gene (hERG) potassium channel (Q12809 whole entry, looked up): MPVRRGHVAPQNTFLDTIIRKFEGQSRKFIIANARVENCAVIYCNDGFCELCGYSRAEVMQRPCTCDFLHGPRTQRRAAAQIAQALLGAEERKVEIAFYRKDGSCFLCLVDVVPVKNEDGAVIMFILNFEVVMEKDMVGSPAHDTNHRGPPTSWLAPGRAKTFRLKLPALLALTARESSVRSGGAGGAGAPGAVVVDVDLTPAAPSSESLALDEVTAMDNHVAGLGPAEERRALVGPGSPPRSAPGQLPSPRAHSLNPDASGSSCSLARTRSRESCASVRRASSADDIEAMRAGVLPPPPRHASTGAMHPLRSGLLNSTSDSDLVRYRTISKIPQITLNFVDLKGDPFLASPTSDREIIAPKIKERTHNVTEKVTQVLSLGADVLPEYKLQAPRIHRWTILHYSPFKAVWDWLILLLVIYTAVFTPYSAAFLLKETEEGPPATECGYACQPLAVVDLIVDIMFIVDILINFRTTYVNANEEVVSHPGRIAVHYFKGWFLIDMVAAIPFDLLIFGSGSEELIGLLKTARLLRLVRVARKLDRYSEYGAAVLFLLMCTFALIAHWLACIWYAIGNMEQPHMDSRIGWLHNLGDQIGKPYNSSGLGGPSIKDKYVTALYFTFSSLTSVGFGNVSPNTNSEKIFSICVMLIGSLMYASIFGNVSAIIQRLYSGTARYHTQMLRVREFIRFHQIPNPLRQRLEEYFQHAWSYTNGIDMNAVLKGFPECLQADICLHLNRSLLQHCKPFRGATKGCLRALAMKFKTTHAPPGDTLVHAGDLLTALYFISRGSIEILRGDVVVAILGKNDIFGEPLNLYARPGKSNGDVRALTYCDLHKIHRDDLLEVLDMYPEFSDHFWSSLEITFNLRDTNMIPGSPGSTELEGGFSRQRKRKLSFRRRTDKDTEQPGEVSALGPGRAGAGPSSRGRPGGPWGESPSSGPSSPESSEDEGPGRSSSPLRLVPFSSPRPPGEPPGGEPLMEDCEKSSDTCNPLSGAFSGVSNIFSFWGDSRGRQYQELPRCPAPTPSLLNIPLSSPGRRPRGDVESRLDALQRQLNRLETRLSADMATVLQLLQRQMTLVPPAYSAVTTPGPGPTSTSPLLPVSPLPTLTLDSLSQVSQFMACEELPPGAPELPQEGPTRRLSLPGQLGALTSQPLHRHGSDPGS
row,SMILES,"hERG current change (%, negative = inhibition) at 10uM"
1,Cc1ccc(-n2nc(C(=O)N3CCN(C)CC3)c3c4ccccc4n(C)c3c2=O)cc1,5.61%
2,CN(C(=O)COC(=O)C1COc2ccccc2O1)C1(C#N)CCCCC1 (stereo not drawn),-8.44%
3,O=C(NC(=S)Nc1ccccc1N1CCCCC1)c1ccc(F)cc1Cl,20.7%
4,COc1ccccc1CN1CCN(C(=O)COc2cccc(C)c2)CC1.O=C(O)C(=O)O,-20.2%
5,COC(=O)Cc1c(O)ccn(CCc2ccc(OC)c(OC)c2)c1=O,16.9%
6,Cl.NS(=O)(=O)c1ccc(CCNC/C=C/c2ccccc2)cc1,-48.7%
7,COc1cccc(CNC(=O)c2cccc(S(=O)(=O)N3CCN(C)CC3)c2)c1,-5.06%
8,C=C(C)Cn1c(N2CCN(c3ccc(OC)cc3)CC2)nc2c1c(=O)n(C)c(=O)n2C,-17.7%
9,COc1c(OC2OC(C(=O)O)C(O)C(O)C2O)cc(O)c2c(=O)cc(-c3ccccc3)oc12 (stereo not drawn),11.7%
10,O=C(COC(=O)Cc1c(F)cccc1Cl)Nc1nnc(-c2ccccc2)o1,-11%
11,O=C(NCCc1ccc(F)cc1)c1cccc(NC(=O)c2ccccc2)c1,-13.9%
12,CNC[C@H](Cc1ccccc1)NC[C@@H](Cc1cccc2ccccc12)NCCc1ccc(C)cc1,-8.43%
13,C=CCn1c(SCc2cccc(OC)c2)nnc1-c1ccncc1,-15.5%
14,COc1ccc2c(CC(=O)N3CCc4ccccc43)coc2c1,10.1%
15,O=C(COC(=O)CCC(=O)c1cccs1)NCc1cccs1,10.3%
16,N#Cc1ccccc1S(=O)(=O)N1CCN(Cc2c(O)ccc3ccccc23)CC1,-6.74%
17,COCCn1c(=S)[nH]c2ccccc21,28.7%
18,O=S1(=O)N=C2CCCCCN2C(c2ccccc2)N1 (stereo not drawn),-5.77%
19,CCOC(=O)c1cccc(NC(=O)c2ccc(NC(=O)c3ccco3)cc2)c1,19.6%
20,Cc1ccc(C2=CC(c3ccccc3)n3ncnc3N2)c(C)c1 (stereo not drawn),5.73%
21,COc1ccc(/C=C(/NC(=O)c2ccccc2)C(=O)N2CCCCC2)cc1,-1.39%

row,SMILES,"hERG current change (%, negative = inhibition) at 10uM"
1,CC(=O)NC(Nc1c(C)n(C)n(-c2ccccc2)c1=O)C(Cl)(Cl)Cl (stereo not drawn),12.9%
2,O=C(CSc1nc2[nH]ncc2c(=O)[nH]1)Nc1ccccc1F,-16.2%
3,COCCNC(=S)NCCCNc1nc2cc3c(cc2cc1C#N)OCO3,-4.47%
4,Cc1cccc(C)c1NC(=O)CN1C(=O)S/C(=C\c2cccn2-c2cccc(C(=O)O)c2)C1=O,11.5%
5,COc1ccc(N(CC(=O)NCc2ccco2)C(=O)CCC(=O)Nc2nccs2)cc1,2.22%
6,O=C(O)C/C(=C\c1cc(Cl)c2c(c1)OCO2)c1nc2ccccc2s1,8.49%
7,Cc1cccc(C)c1NC(=O)CSc1cc(C(=O)c2nccn2C)c2ccccc2n1,12.6%
8,CCNC(=O)C(C)NC(=O)C1=NN(c2ccccc2)C(=O)CC1 (stereo not drawn),11.8%
9,Cc1ccccc1Nc1c(-c2cccnc2)nc2cccc(C)n12,-25.2%
10,COCCOC1CCN(C(=O)c2ccc(OC)c(OC3CCN(C(C)C)CC3)c2)CC1,14.4%
11,Cc1ccc(C(=O)NCC(=O)Nc2cccc(S(=O)(=O)NC3=NCCCCC3)c2)cc1C,21.5%
12,CN(CCC(=O)Nc1ccc(Br)cc1)Cc1ccccc1,-38.4%
13,CS(=O)(=O)c1ccc2nc(NC(=O)c3cc([N+](=O)[O-])cc([N+](=O)[O-])c3)sc2c1,-3.36%
14,CCCn1c(SCC(=O)N2CCCc3ccccc32)nnc1-c1ccco1,-6.27%
15,N#CCSc1nnc(-c2c[nH]c3ccccc23)o1,5.16%
16,C=CCNC(=O)CCCOc1cccc(C)c1,8.36%
17,COc1ccc(CCN2CCCn3c2nc2c3c(=O)[nH]c(=O)n2C)cc1OC,3.03%
18,CCN(CC)CCSc1nnc2c3ccccc3n(CCc3ccccc3)c2n1,-75.3%
19,COc1ccccc1/C=N/NC(=O)C1=NNC(c2ccccc2)(c2ccccc2)C1,2.43%
20,CN(CC(=O)Nc1cccc(F)c1)CC(=O)Nc1cccc(S(N)(=O)=O)c1,15.1%
21,Cc1ccc(NC(=O)Cn2ncc3c([nH]c4ccccc43)c2=O)cc1Cl,21.4%

row,SMILES,"hERG current change (%, negative = inhibition) at 10uM"
1,Cc1ccccc1NC(=O)NC1(C(=O)N2CCC(C(N)=O)CC2)CCCCC1,-2.5%
2,CC(C)(C)NC(=O)NC(=O)CN1c2cccc3cccc(c23)S1(=O)=O,20%
3,CSCC[C@H](NS(=O)(=O)c1ccc(C)cc1)C(=O)N1CCC(C(=O)N[C@H](C(=O)O)c2ccccc2)CC1,-2.1%
4,CCOc1ccc(N(CC(=O)NC2CCCC(C)C2C)S(=O)(=O)c2c(C)noc2C)cc1 (stereo not drawn),-2.95%
5,CCOC(=O)c1cc2c(=O)n3ccccc3nc2n(Cc2ccco2)c1=NC(=O)c1ccccc1OCC,-50%
6,CC1(C)C(=O)Nc2ccccc2N1C(=O)COC(=O)CCSc1ccccc1,-5.53%
7,Cc1ccccc1-n1ncc2c([N+](=O)[O-])cc([N+](=O)[O-])cc21,-11.8%
8,COC(CNC(=O)C(=O)Nc1cc2c3c(c1)CCN3C(=O)CC2)OC,20.1%
9,COc1cccc(C(C2C(=O)CC(C)(C)CC2=O)C2C(=O)CC(C)(C)CC2=O)c1,21.2%
10,CCOC(=O)c1sc(NC(=O)c2cc(S(=O)(=O)N3CCOCC3)ccc2C)nc1C,-60.9%
11,COc1ccc(Nc2nc(N)nc(CSC(=S)N3CCN(C)CC3)n2)cc1,-12.5%
12,O=C(CO/N=C/c1cccc([N+](=O)[O-])c1)Nc1ccc2ccccc2c1,3.23%
13,N#C/C(=C/c1cccn1-c1cccc(C(=O)O)c1)c1ccc(Cl)cc1,11.5%
14,COc1cccc2sc(N(CCN(C)C)C(=O)c3ccc(S(=O)(=O)N4CCCC4)cc3)nc12.Cl,-31.2%
15,COc1cccc(-c2n[nH]c(=S)n2Cc2ccco2)c1OC,6.08%
16,Cc1ccccc1C(=O)Nc1ccnn1C1CCN(Cc2cccnc2)CC1,-77.4%
17,COC(c1ccccc1)c1nnc(CCC(=O)NCCC(C)C)o1 (stereo not drawn),11.6%
18,Cc1ccc(S(=O)(=O)NN2C(=O)/C(=C/c3ccc(C(=O)O)cc3)SC2=S)cc1,19.9%
19,COc1ccccc1NC(=O)c1ccccc1C(=O)O,21.8%
20,COC(=O)C1=C(C)Nc2nc(-c3ccccc3)nn2C1c1ccc(C)o1 (stereo not drawn),-12.4%
21,CSc1cccc(NC(=O)C2CCCN2S(=O)(=O)c2ccc(Br)s2)c1 (stereo not drawn),5.27%

row,SMILES,"hERG current change (%, negative = inhibition) at 10uM"
1,Cc1ccc(CNC(=O)C(=O)NCC2OCCN2S(=O)(=O)c2cccs2)cc1 (stereo not drawn),6.69%
2,COc1cc(OC)c(OC)cc1/C=C1\SC(N2CCCCC2)=NC1=O,17.6%
3,CCOc1ccc(C2=C/C(=C/c3cccnc3)C(=O)O2)cc1,5.07%
4,O=S(=O)(Nc1ccc(S(=O)(=O)N2CCOCC2)cc1)c1ccc(Br)cc1,-28.7%
5,Cc1ccc(S(=O)(=O)N(C)CCCC(=O)NCc2ccc3c(c2)OCO3)cc1,-23.5%
6,CC1(C(=O)NNC(=O)c2ccc([N+](=O)[O-])cc2)CC1(Br)Br (stereo not drawn),-0.0404%
7,CCOc1cc(CNc2ccccc2)cc(Br)c1OCc1ccc(F)cc1,10.3%
8,Cn1c(-c2sc3cc(C(F)(F)F)cnc3c2-c2cccnc2)n[nH]c1=S,23.6%
9,O=C(CNCC1CCCO1)NCc1ccco1.O=C(O)C(=O)O (stereo not drawn),14%
10,COc1ccc(-c2noc(-c3ccccc3C(=O)NCC3CCCO3)n2)cc1 (stereo not drawn),-21.5%
11,O=C(Nc1cccc(O)c1)c1cc2nc(-c3ccccc3)cc(-c3ccccc3)n2n1,9.68%
12,O=C1C2=C(NC(=S)NC2c2ccc(Cl)cc2)NC(c2ccc(Cl)cc2)N1c1ccc(Cl)cc1 (stereo not drawn),8.94%
13,Cc1nc2ccc(S(=O)(=O)Nc3ccc(-c4nc5cccnc5s4)cc3)cc2s1,13.4%
14,COc1ccc(-c2cc3cc(C(=O)[O-])ccn3c2C(=O)c2ccccc2)cc1.O,15.2%
15,CCC(=NC1CC(C)(C)NC(C)(C)C1)C1=C(O)CC(C)(C)CC1=O,5.83%
16,CCC1ON(C(C)C)C2c3nc4ccccc4n3CC12 (stereo not drawn),23.3%
17,Nc1cc(=O)[nH]c(SCC(=O)Nc2cc(Cl)cc(Cl)c2)n1,14.8%
18,Cc1cccc(NC(=O)c2ccc3c(c2)OCCO3)n1,9.65%
19,CCOc1ccc(CC(=O)N/N=C(\C)c2cccnc2)cc1,17%
20,CNS(=O)(=O)c1ccc(N=Cc2c(O)n(-c3ccc(C)cc3)c(=O)[nH]c2=O)cc1,8%
21,Cc1cc(S(=O)(=O)NCc2ccccc2)ccc1OCC(=O)N1CCN(C)CC1,-3.06%

# Source: paper PMC4336329 (PLoS ONE, 2015)
